Assay results: the supplement of paper PMC10369915
The list shows a part of the results. Cut-off read from the data, not from the text of the source: active = 3.2 or more and inactive = the rest. Most of these values are background signal.

B1: YWHAG_Y133_R132C (peptide)
chain: GDYYCYLAEVA
B2: ZAP70_Y493_YF (peptide)
chain: ADDSFYTARSA
B3: YY1_Y383 (peptide)
chain: TGDRPYVCPFD
B4: XPC_Y669 (peptide)
chain: AAILGYCRGEA
B5: YWHAG_Y133 (peptide)
chain: GDYYRYLAEVA
B6: YWHAG_Y49 (peptide)
chain: LLSVAYKNVVG
B7: YES1_Y194_I198V (peptide)
chain: TTKGAYSLSVR
B8: WDPCP_Y210_L205F (peptide)
chain: FSALDYKIFYY
B9: XRCC1_Y515 (peptide)
chain: NGEDPYAGSTD
B10: WAS_Y83_S82P_YF (peptide)
chain: NPQKPYFIRLF
B11: ZAP70_Y492_A495V (peptide)
chain: GADDSYYTVRS
B12: YBX1_Y145_P149R_YF (peptide)
chain: ADRNHYRRFRR
B13: YWHAG_Y130_Y133S (peptide)
chain: KMKGDYYRSLA
B14: ZAP70_Y178_R175L (peptide)
chain: AELKLYSGAQT
B15: YWHAG_Y130 (peptide)
chain: KMKGDYYRYLA
B16: XPA_Y257 (peptide)
chain: LEDDMYRKTCT
B17: YIPF7_Y59_A54T (peptide)
chain: TYGNLYGSRKQ
B18: YWHAG_Y133_R132C_YF (peptide)
chain: GDFFCYLAEVA
B19: YY1_Y383_D380Y (peptide)
chain: TGYRPYVCPFD

target: SHP2 C-SH2 domain E139D; experiment: enrichment score (SH2-bound / input frequency) (ratio); bacterial display of known human phosphotyrosine sites (pTyr-Var adds point mutants) read by sequencing; higher = stronger binding; tyrosines were phosphorylated by kinases first; conditions: peptide library: pTyr-Var
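Note: displayed peptides selected on beads carrying the immobilized SH2 domain, with library peptides lacking any tyrosine serving as negative controls.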

Enrichment score, inactive:
B1 0.963
B2 0.319
B3 0.685
B4 0.815
B5 0.819
B6 1
B7 0.883
B8 2.05
B9 0.344
B10 0.757
B11 0.626
B12 0.255
B13 1.01
B14 1.14
B15 2.4
B16 0.309
B17 0.413
B18 1.26
B19 0.781

target: SHP2 C-SH2 domain wild-type; experiment: as above; conditions: peptide library: pTyr-Var

Enrichment score, inactive:
B1 1.22
B2 0.296
B3 0.76
B4 0.854
B5 0.888
B6 1.09
B7 0.454
B8 2.11
B9 0.359
B10 0.622
B11 0.552
B12 0.277
B13 0.72
B14 0.915
B15 2.47
B16 0.687
B17 0.337
B18 0.973
B19 0.873

target: SHP2 N-SH2 domain L43F; experiment: as above; conditions: peptide library: pTyr-Var

Enrichment score, inactive:
B1 1.16
B2 0.318
B3 0.813
B4 0.774
B5 0.745
B6 1.1
B7 0.555
B8 2.14
B9 0.426
B10 0.546
B11 0.572
B12 0.246
B13 0.85
B14 0.862
B15 2.55
B16 0.686
B17 0.417
B18 0.87
B19 0.751

target: SHP2 N-SH2 domain T42A; experiment: as above; conditions: peptide library: pTyr-Var

Enrichment score, inactive:
B1 1.02
B2 0.471
B3 0.837
B4 0.931
B5 0.891
B6 0.975
B7 0.867
B8 1.96
B9 0.353
B10 0.617
B11 0.499
B12 0.243
B13 0.727
B14 1.05
B15 2.15
B16 0.511
B17 0.374
B18 0.839
B19 0.809

target: SHP2 N-SH2 domain T52S; experiment: as above; conditions: peptide library: pTyr-Var

Enrichment score, inactive:
B1 2.78
B2 0.311
B3 0.685
B4 0.822
B5 0.71
B6 1.13
B7 0.702
B8 2.43
B9 0.48
B10 0.763
B11 0.458
B12 0.265
B13 0.801
B14 0.872
B15 2.01
B16 0.64
B17 0.328
B18 0.771
B19 0.53

target: SHP2 N-SH2 domain wild-type; experiment: as above; conditions: peptide library: pTyr-Var

Enrichment score, inactive:
B1 1.6
B2 0.383
B3 0.763
B4 0.954
B5 0.838
B6 1.12
B7 0.609
B8 1.55
B9 0.246
B10 0.735
B11 0.56
B12 0.26
B13 0.864
B14 1.14
B15 2.44
B16 0.917
B17 0.407
B18 1.03
B19 1.05
